According to PubChem BioAssay AID504832 (National Center for Advancing Translational Sciences (NCATS), 2011):
Among all 310,000 compounds or so, about 18,000 (5.8%) were called active. This list was built around the results that the source calls inconclusive (neither active nor inactive); the mix of calls is not that of the screen. The call rests on the fitted dose curve; in most records, active means well fitted inhibition curve with a large enough effect; inconclusive means small, poorly fitted or top-dose-only effect, or another doubt; inactive means no such curve, though single readings can be large or run the other way. No potency is given beside an inconclusive call; the fits are too rough.

Assay: Primary qHTS for delayed death inhibitors of the malarial parasite plastid, 48 hour incubation
Details: P. falciparum luciferase growth in erythrocytes; series mostly up to 28.7 µM; activity change, negative = inhibition: at the top concentration
How it was run: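 Here the parasites carry a stable luciferase gene and grow inside erythrocytes in Albumax-based RPMI medium with compound for one erythrocytic cycle. Activity is scored as loss of luminescent signal.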
On the % scale 0 is the no-effect control and ±100 the full control effect; potency means the concentration at half of the fitted maximal effect; tags describe the fitted curve by direction and shape.

With `O=C(CC(=O)c1ccccc1)Nc1ccccn1` as the compound, how does the “activity change, negative = inhibition” value read?
Its value is inactive: 207%.

For `CCN(CC(=O)Nc1ccccc1C(F)(F)F)C(=O)c1cc(-c2ccccc2)nn1-c1ccccc1`, which Potency is on record?
Its Potency is inconclusive [inhibitor, single point].

For `COCCN(Cc1cn(C)nc1-c1ccc(Oc2ccccc2)cc1)C(C)C`, which “activity change, negative = inhibition” value is on record?
Its value is inactive: -1.21%.

With `CN(C1CCCCC1)S(=O)(=O)c1ccc2c(c1)CCC(=O)N2` as the compound, how does the Potency read?
Its Potency is inconclusive [inhibitor, single point].

For `CCOc1ccccc1C(=O)NCC(=O)NC(C)c1ccc(-n2ccnc2)cc1` (configuration not stated), which Potency is on record?
Its Potency is inconclusive [inhibitor, single point].

For `O=C(Nc1nc(-c2cc(F)ccc2F)cs1)C1=NN(c2ccccc2)C(=O)CC1`, which Potency is on record?
The Potency was inconclusive [inhibitor, single point].

For `N#Cc1ccc(NC(=O)CNc2cc(S(=O)(=O)N3CCOCC3)ccc2NCC2CCCO2)cc1` (configuration not stated), which Potency is on record?
The Potency was inconclusive [inhibitor, partial curve, poor fit].

Which Potency does the source give for `Cc1ccc(S(=O)(=O)N2CCCN(C(C)c3nc4ccccc4c(=O)[nH]3)CC2)cc1` (configuration not stated) here?
The Potency was inconclusive [inhibitor, partial curve].

With `Cc1sc2nc(SCC(=O)OC(C)C)n(C)c(=O)c2c1C` as the compound, how does the “activity change, negative = inhibition” value read?
Its value is inactive: -17%.

Which Potency does the source give for `Cc1ccc(O)c(NC(=O)c2cc([N+](=O)[O-])ccc2Cl)c1` here?
The Potency was active: 9.28 µM.

For `COc1ccc(NS(=O)(=O)c2cc(NC(=O)c3ccc(C)o3)ccc2N2CCCCC2)cc1`, which Potency is on record?
The Potency was active: 9.28 µM.

Which “activity change, negative = inhibition” value does the source give for `COc1cc(C2C3=C(CCCC3=O)Nc3[nH]n(-c4ccccc4)c(=O)c32)cc(OC)c1OC` (configuration not stated) here?
The value was inactive: 4.6%.

Which Potency does the source give for `O=C(N/N=C/c1ccco1)c1cc(-c2cccc(Br)c2)nc2ccccc12` here?
Its Potency is inconclusive [inhibitor, single point].

For `Cc1ccc2cc(C#N)c(N3CCN(C(=O)c4cccs4)CC3)nc2c1`, which Potency is on record?
The Potency was inconclusive [inhibitor, single point].

With `O=C(Nc1ncc(Cc2cccc(Cl)c2)s1)c1ccc([N+](=O)[O-])cc1` as the compound, how does the Potency read?
Its Potency is inconclusive [inhibitor, single point].

Which Potency does the source give for `CCOC(=O)c1ccc2[nH]c3c(c2c1)CN(C)CC3` here?
Its Potency is inconclusive [inhibitor, single point].

With `CC(=O)Nc1cccc(C(=O)OC(C(=O)c2ccc(C)c(C)c2)c2ccccc2)c1` (configuration not stated) as the compound, how does the Potency read?
Its Potency is inconclusive [inhibitor, partial curve, poor fit].

For `Cc1cc2c3c(c1C)C1(C(=O)N3C(C)(C)CC2C)C(C#N)=C(N)Oc2n[nH]c(C)c21` (configuration not stated), which Potency is on record?
The Potency was inconclusive [inhibitor, partial curve].

For `CN1CCN(C(=S)SCc2nc(N)nc(Nc3ccc(F)cc3)n2)CC1`, which Potency is on record?
Its Potency is inconclusive [inhibitor, single point].

With `Cc1cccc(-n2c(O)c(C)c(=O)[nH]c2=S)c1` as the compound, how does the Potency read?
The Potency was inconclusive [inhibitor, single point].

With `COCCOC(=O)C1=C(C)NC(=S)NC1/C=C/c1ccccc1` (configuration not stated) as the compound, how does the Potency read?
Its Potency is inconclusive [inhibitor, partial curve, poor fit].

With `CCOC(=O)Cc1csc(NC(=O)/C=C/c2ccc(Br)o2)n1` as the compound, how does the “activity change, negative = inhibition” value read?
Its value is inactive: 77.1%.

With `CC(C)(C)C(=O)Nc1ccc(S(=O)(=O)N2CCCC2)cc1` as the compound, how does the “activity change, negative = inhibition” value read?
Its value is inactive: 31%.

For `Cc1ccc(C(c2c(C)n(C)n(-c3ccccc3)c2=O)c2c(C)n(C)n(-c3ccccc3)c2=O)s1`, which Potency is on record?
Its Potency is inconclusive [inhibitor, partial curve].

With `CC1=Nn2c(nc3sc4c(c3c2=O)CCCC4)SC1` as the compound, how does the “activity change, negative = inhibition” value read?
The value was inactive: 58.5%.

With `O=C(O)/C=C/C(=O)Nc1ccc(C2(c3ccc(NC(=O)/C=C/C(=O)O)cc3)c3ccccc3-c3ccccc32)cc1` as the compound, how does the Potency read?
Its Potency is inconclusive [inhibitor, single point].

For `COc1cc(NC(=O)c2cccc([N+](=O)[O-])c2)ccc1NC(=O)c1ccco1`, which Potency is on record?
Its Potency is inconclusive [inhibitor, partial curve].

For `CC1=CC(C)(C)Nc2ccc(OS(=O)(=O)c3ccc(C)cc3)cc21`, which Potency is on record?
The Potency was inconclusive [inhibitor, single point].

For `COc1ccc2cc(CCNC(=O)c3ccco3)c(=O)[nH]c2c1`, which “activity change, negative = inhibition” value is on record?
The value was inactive: 72%.

Which “activity change, negative = inhibition” value does the source give for `COc1cc2c(cc1OC)C1C(C(=O)Nc3ccccc3N3CCN(C)CC3)c3ccccc3C(=O)N1CC2` (configuration not stated) here?
The value was inactive: -6.62%.

With `S=c1[nH]c(-c2ccc(Br)cc2)cn1CCc1ccccc1` as the compound, how does the Potency read?
The Potency was inconclusive [inhibitor, partial curve, poor fit].

With `CCc1ccc(NC(=O)CSc2nnnn2-c2cccnc2)cc1` as the compound, how does the “activity change, negative = inhibition” value read?
Its value is inactive: 29.1%.

For `COc1ccccc1NC(=O)c1oc2ccccc2c1NC(=O)C1CC1`, which Potency is on record?
The Potency was active: 11.7 µM.

For `COc1ccc(CN(C)C(=O)CCN=C2NS(=O)(=O)c3ccccc32)c(OC)c1`, which Potency is on record?
The Potency was inconclusive [inhibitor, partial curve, poor fit].

Which Potency does the source give for `CC1=CC(=O)C=C(C)C1=NOc1ccc([N+](=O)[O-])cc1` here?
The Potency was inconclusive [inhibitor, full curve, poor fit].

With `c1ccc(NC2=NCCN2CC2CCCC2)cc1` as the compound, how does the “activity change, negative = inhibition” value read?
Its value is inactive: 30.4%.

Which “activity change, negative = inhibition” value does the source give for `Cc1ccnc(NC(=O)c2cnc(Cl)c(Cl)c2)c1` here?
Its value is inactive: 50.2%.

For `CC1CCN(C(=O)CS(=O)(=O)Cc2ccccc2)CC1`, which “activity change, negative = inhibition” value is on record?
The value was inactive: 103%.

For `O=C(NCCSCc1c(F)cccc1Cl)Nc1ccccc1`, which Potency is on record?
Its Potency is inconclusive [inhibitor, single point].

For `Cc1cccc(Oc2nc(-c3ccncc3)nc3ccccc23)c1`, which Potency is on record?
Its Potency is active: 1.65 µM.

Which Potency does the source give for `CCCCN(CC)CCNC(=O)c1nn(-c2ccc(OC)cc2)c(=O)c2c1c1ccccc1n2C` here?
Its Potency is inconclusive [inhibitor, partial curve].

Which “activity change, negative = inhibition” value does the source give for `COC(=O)c1sc(NC(=O)c2cc3c(s2)CCCC3)nc1C` here?
The value was inactive: 9.57%.

With `O=C1NCCCC1C(=O)N/N=C/c1ccc(Cl)cc1` (configuration not stated) as the compound, how does the “activity change, negative = inhibition” value read?
Its value is inactive: 25.1%.

Which “activity change, negative = inhibition” value does the source give for `CC(=O)OCC1=C(C(=O)O)N2C(=O)C(NC(=O)COc3ccc(F)cc3)C2SC1` (configuration not stated) here?
Its value is inactive: -10.4%.

With `Cn1c(=O)c(C(=S)NC(=O)C2CC2)c(N)n(Cc2ccccc2)c1=O` as the compound, how does the Potency read?
Its Potency is active: 9.28 µM.

With `Cn1c(=O)c(Nc2ccc(Cl)cc2)c2c3c(cccc31)C(=O)c1ccccc1-2` as the compound, how does the Potency read?
Its Potency is inconclusive [inhibitor, partial curve, poor fit].

With `O=C(NCCCCc1ccccc1)C1CC(c2ccc(C(F)(F)F)cc2)=NO1` (configuration not stated) as the compound, how does the “activity change, negative = inhibition” value read?
Its value is inactive: 47.6%.

With `CCN(C(=O)C1CCCN(c2nc(-c3ccc(OC)cc3)no2)C1)c1ccc(OC)cc1` (configuration not stated) as the compound, how does the Potency read?
Its Potency is inconclusive [inhibitor, partial curve, poor fit].

Which Potency does the source give for `Cc1ccc(C(c2cc(Cl)c3cccnc3c2O)N2CCN(C)CC2)cc1` (configuration not stated) here?
Its Potency is active: 4.15 µM.

For `COc1ccc(-n2c(/C=C3/C(=O)Nc4ccccc43)nc3ccccc3c2=O)cc1`, which “activity change, negative = inhibition” value is on record?
The value was inactive: -19%.

Which “activity change, negative = inhibition” value does the source give for `CCOc1ccc(CCNC(=O)C2CC(=O)N(CCc3ccc(OC)c(OC)c3)C2)cc1OCC` (configuration not stated) here?
The value was inactive: -26.3%.

Which Potency does the source give for `CCC(CO)n1cnnc1-c1ccncc1` (configuration not stated) here?
Its Potency is inconclusive [inhibitor, partial curve, poor fit].

Which “activity change, negative = inhibition” value does the source give for `O=C1SC(c2ccccc2)=N/C1=C/c1ccco1` here?
Its value is inactive: 0.802%.

With `Cc1cc(NC(=O)COC(=O)Cn2c(C)csc2=O)ccc1Br` as the compound, how does the Potency read?
Its Potency is inconclusive [inhibitor, single point].

Which “activity change, negative = inhibition” value does the source give for `COc1ccc(NC(=S)NC(=O)/C=C/c2ccco2)c(OC)c1` here?
The value was inactive: -40.3%.

With `S=c1nc2ccccc2c2nc(-c3ccccc3Cl)[nH]n12` as the compound, how does the Potency read?
The Potency was active: 1.47 µM.

For `COc1ccc(NC(=O)CN2CCN(c3ccccn3)CC2)cc1Cl`, which “activity change, negative = inhibition” value is on record?
The value was inactive: 19.4%.

With `CC(C)c1c(CN(C)C(C)Cc2ccccc2)n(C)n(-c2ccccc2)c1=O` (configuration not stated) as the compound, how does the Potency read?
The Potency was inconclusive [inhibitor, single point].

For `COC(=O)C1(C)Cc2cc(OC(C)=O)c(OC(C)=O)cc2N1` (configuration not stated), which Potency is on record?
The Potency was inconclusive [inhibitor, partial curve].

With `CCN(CC(=O)N(CC(C)C)c1c(N)n(CC(C)C)c(=O)[nH]c1=O)Cc1nc2ccccc2c(=O)[nH]1` as the compound, how does the Potency read?
Its Potency is inconclusive [inhibitor, single point].

With `CCN(Cc1nc2ccccc2c(=O)[nH]1)C(=O)c1cccc(NC(=O)c2cccs2)c1` as the compound, how does the Potency read?
Its Potency is inconclusive [inhibitor, partial curve, poor fit].

For `Cc1ccc(N/N=C/c2cccnc2)cc1`, which Potency is on record?
Its Potency is inconclusive [inhibitor, single point].

Which Potency does the source give for `CCOC(=O)C1=C(N)n2c(s/c(=C\c3ccncc3)c2=O)=C(C(=O)OCC)C1c1ccncc1` (configuration not stated) here?
The Potency was inconclusive [inhibitor, single point].

With `CCOC(=O)c1c(C)oc2cc(Cl)c(O)c(CN(C)C)c12` as the compound, how does the Potency read?
The Potency was inconclusive [inhibitor, single point].

For `O=C1NCCCC2c3cc(O)c4ccccc4c3OC12N1CCCCC1` (configuration not stated), which Potency is on record?
Its Potency is active: 8.28 µM.

With `Cc1nc2c3cc(Cl)ccc3n(CCN3CCCCC3)c2s1` as the compound, how does the Potency read?
The Potency was inconclusive [inhibitor, single point].

Which Potency does the source give for `CN1CCN(C(=O)/C=C/c2ccc([N+](=O)[O-])o2)CC1` here?
Its Potency is active: 11.7 µM.

With `COc1ccc(N2CCN(Cc3cc(=O)oc4cc(-c5ccccc5)c(O)cc34)CC2)cc1` as the compound, how does the Potency read?
The Potency was active: 1.85 µM.

Which Potency does the source give for `COc1ccc(Nc2oc(COc3cccc(C)c3)nc2C#N)cc1` here?
The Potency was inconclusive [inhibitor, single point].

For `COc1ccccc1C(=O)COC(=O)Cn1[nH]c(=O)c2ccccc2c1=O`, which “activity change, negative = inhibition” value is on record?
Its value is inactive: 7.55%.

With `Cc1ccc2sc(N(CCCN(C)C)C(=O)c3ccc(S(=O)(=O)N4CCc5ccccc5C4)cc3)nc2c1C` as the compound, how does the Potency read?
Its Potency is inconclusive [inhibitor, single point].

Which “activity change, negative = inhibition” value does the source give for `O=[N+]([O-])c1ccc(CN2CCN(c3ccccc3Cl)CC2)o1` here?
The value was inactive: 3.42%.
